{"source": "the supplement of paper PMC10126150", "note": "Values marked as one replicate rest on one cluster of the flow cell; about a third of the high ones do not repeat.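 Also: ATP exposure 15 min at 22 °C before imaging.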"}
{"tested_on": "ATP", "experiment": "switch fluorescence ratio, 500 uM ATP over buffer (Cy3 cluster intensity, sum of 5 cycles each) (fold (ratio)); higher = stronger signal-on switching upon ATP binding; sequences stand for … in TCGTCGGCAGCGTCAGATGTGTATAAGAGACAGTTTTTTTTTTTTTTTTTTTTTTTTT…TC", "details": "aptamer strand: ATP DNA aptamer (quencher-CACCTGGGGGAGTATTGCGGAGGAAGG + anchor), 100 nM annealed; ATP concentration: 500 uM; one replicate", "how_it_was_run": "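Clusters carrying Cy3-labelled switching strands on a modified Illumina MiSeq flow-cell were annealed to 100 nM quencher-labelled ATP aptamer and imaged in selection buffer. They were imaged again after 15 min with 500 uM ATP at 22 °C, over five buffer/ATP cycles with NaOH stripping and re-annealing in between. For each cluster, the fluorescence ratio is the summed Cy3 intensity of the target cycles divided by that of the buffer cycles, averaged per switch-domain sequence. Clusters outside 100-1000 RFU were left out.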"}
{"sequence": "GTCCTCGATA", "switch fluorescence ratio": 1.14}
{"sequence": "GTGTGACTT", "switch fluorescence ratio": 1}
{"sequence": "TGGGTCCTTT", "switch fluorescence ratio": 1.05}
{"sequence": "TTGCCGGGCC", "switch fluorescence ratio": 1.03}
{"sequence": "TCGGTACTTT", "switch fluorescence ratio": 0.993}
{"sequence": "ACGGACTAGA", "switch fluorescence ratio": 1.14}
{"sequence": "TAATGGTAGC", "switch fluorescence ratio": 0.938}
{"sequence": "TTATAATCAT", "switch fluorescence ratio": 0.941}
{"sequence": "CGAGCGATTC", "switch fluorescence ratio": 6.01}
{"sequence": "CGGCTGCCAG", "switch fluorescence ratio": 0.965}
{"sequence": "GAAACACAAT", "switch fluorescence ratio": 1.03}
{"sequence": "ACGGTTATCG", "switch fluorescence ratio": 1.01}
{"sequence": "TCTTTGACAT", "switch fluorescence ratio": 1.01}
{"sequence": "AATTATAAGG", "switch fluorescence ratio": 1.05}
{"sequence": "CTGCAGTTTG", "switch fluorescence ratio": 3.1}
{"sequence": "CTGCTCTAGA", "switch fluorescence ratio": 1.02}
{"sequence": "GAATTTGGAG", "switch fluorescence ratio": 1.01}
{"sequence": "CCTCATGACT", "switch fluorescence ratio": 1.25}
{"sequence": "AAGTATGCC", "switch fluorescence ratio": 1.18}
{"sequence": "TGGGCTTTGA", "switch fluorescence ratio": 0.983}
{"sequence": "GTTGATAGCA", "switch fluorescence ratio": 1.01}
{"sequence": "CAATCCTGGT", "switch fluorescence ratio": 0.974}
{"sequence": "CCGGCACGGG", "switch fluorescence ratio": 1}
{"sequence": "TAAACGGAAC", "switch fluorescence ratio": 1.14}
{"sequence": "TGTGGGTCTA", "switch fluorescence ratio": 0.984}
{"sequence": "GCGGGTGTTT", "switch fluorescence ratio": 1.05}
{"sequence": "CATGTGTGAT", "switch fluorescence ratio": 0.971}
{"sequence": "GGGCAGTCCG", "switch fluorescence ratio": 0.984}
{"sequence": "GGTCTGCGGT", "switch fluorescence ratio": 1.06}
{"sequence": "ATTACGGGGC", "switch fluorescence ratio": 1.03}
{"sequence": "CTGGGTCGCA", "switch fluorescence ratio": 1.01}
{"sequence": "CTGGGATGGT", "switch fluorescence ratio": 0.994}
{"sequence": "CGCTCGATCA", "switch fluorescence ratio": 0.954}
{"sequence": "AAACCCCAAC", "switch fluorescence ratio": 1.1}
{"sequence": "ACGCCTAAGC", "switch fluorescence ratio": 1.07}
{"sequence": "AATAACGTGA", "switch fluorescence ratio": 1.01}
{"sequence": "TGTGTGAAGA", "switch fluorescence ratio": 1.04}
{"sequence": "ACCTCTATTA", "switch fluorescence ratio": 1.02}
{"sequence": "GATGCGTAAG", "switch fluorescence ratio": 1.02}
{"sequence": "ATGGGAAGTA", "switch fluorescence ratio": 0.988}
{"sequence": "GGGCCAAAAT", "switch fluorescence ratio": 1.03}
{"sequence": "GCAGTTTATT", "switch fluorescence ratio": 0.989}
{"sequence": "TCATGTGGTG", "switch fluorescence ratio": 0.959}
{"sequence": "TAGTATAGGT", "switch fluorescence ratio": 1.03}
{"sequence": "GCGTCGCAGA", "switch fluorescence ratio": 1}
{"sequence": "GGAGTCCCTC", "switch fluorescence ratio": 0.98}
{"sequence": "AAGTCTGAGA", "switch fluorescence ratio": 0.975}
{"sequence": "AAAGTGGAAT", "switch fluorescence ratio": 0.985}
{"sequence": "CGGCATATTA", "switch fluorescence ratio": 1.05}
{"sequence": "GGGCACCCCT", "switch fluorescence ratio": 1.01}
{"sequence": "ACTAAAACTA", "switch fluorescence ratio": 1.13}
{"sequence": "CCAACCAACT", "switch fluorescence ratio": 1.12}
{"sequence": "TCGCATACGT", "switch fluorescence ratio": 1.65}
{"sequence": "CCTTGGGGCA", "switch fluorescence ratio": 1.01}
{"sequence": "ACTGTGGGTA", "switch fluorescence ratio": 0.991}
{"sequence": "CACGAGCTTC", "switch fluorescence ratio": 1.04}
{"sequence": "TCCGGGTAGA", "switch fluorescence ratio": 1.02}
{"sequence": "TGCTAGCGG", "switch fluorescence ratio": 1.01}
{"sequence": "ATATGGATGC", "switch fluorescence ratio": 0.971}
{"sequence": "CATGGTGATC", "switch fluorescence ratio": 1.01}
{"sequence": "GCGATCCAGC", "switch fluorescence ratio": 1.01}
{"sequence": "TTCCCAGGGT", "switch fluorescence ratio": 1.85}
{"sequence": "TAATAGTATG", "switch fluorescence ratio": 0.974}
{"sequence": "TACAGATTAC", "switch fluorescence ratio": 1.22}
{"sequence": "ATTATTGTTT", "switch fluorescence ratio": 1.01}
{"sequence": "AATGCACTAT", "switch fluorescence ratio": 1.03}
{"sequence": "CGCGTGGACG", "switch fluorescence ratio": 1.03}
{"sequence": "CCGGGATTAG", "switch fluorescence ratio": 1.32}
{"sequence": "TACCTATTTA", "switch fluorescence ratio": 1}
{"sequence": "TAACCCTCAT", "switch fluorescence ratio": 1.21}
{"sequence": "CACAAAAAAT", "switch fluorescence ratio": 1.04}
{"sequence": "GTCGCTACAA", "switch fluorescence ratio": 0.975}
{"sequence": "GTGAGCATAC", "switch fluorescence ratio": 4.9}
{"sequence": "AGCATAACTA", "switch fluorescence ratio": 1.05}
{"sequence": "AGTGAGCGGA", "switch fluorescence ratio": 1.02}
{"sequence": "TAAGTGCTCA", "switch fluorescence ratio": 0.979}
{"sequence": "CTTTCATTCT", "switch fluorescence ratio": 1.03}
{"sequence": "AGCTTGTACG", "switch fluorescence ratio": 1.09}
{"sequence": "GGTCGCGCAA", "switch fluorescence ratio": 1.08}
{"sequence": "TGCCGCAACA", "switch fluorescence ratio": 3.26}
{"sequence": "GCAAACAAGG", "switch fluorescence ratio": 1.01}
{"sequence": "AAGTCCCTAG", "switch fluorescence ratio": 0.986}
{"sequence": "TGTTCGGAAG", "switch fluorescence ratio": 1}
{"sequence": "CAAATGGACC", "switch fluorescence ratio": 1.04}
{"sequence": "GTGCGGGCGT", "switch fluorescence ratio": 1.01}
{"sequence": "GACAACGCAC", "switch fluorescence ratio": 3.6}
{"sequence": "CATACTGTT", "switch fluorescence ratio": 1.01}
{"sequence": "CATATTCTGC", "switch fluorescence ratio": 0.997}
{"sequence": "ATGTATGAAT", "switch fluorescence ratio": 0.98}
{"sequence": "ATAGGTTGAA", "switch fluorescence ratio": 1.01}
{"sequence": "ACGTATGTAC", "switch fluorescence ratio": 1.13}
{"sequence": "GCGTAGTCTG", "switch fluorescence ratio": 0.938}
{"sequence": "GATAATTCGG", "switch fluorescence ratio": 0.992}
{"sequence": "TCCAGTCAGA", "switch fluorescence ratio": 1.03}
{"sequence": "TTACGAATGT", "switch fluorescence ratio": 1}
{"sequence": "GGCGATAGGT", "switch fluorescence ratio": 1.01}
{"sequence": "CCTCAGGGTG", "switch fluorescence ratio": 4.14}
{"sequence": "TCGCTTAGTG", "switch fluorescence ratio": 1.01}
{"sequence": "AACGGTACT", "switch fluorescence ratio": 1.54}
{"sequence": "AGACGCGTTG", "switch fluorescence ratio": 0.956}
{"sequence": "CTGGGACCCT", "switch fluorescence ratio": 1.03}
{"sequence": "AGGAAGCTTT", "switch fluorescence ratio": 0.978}
{"sequence": "AATTTGCAGG", "switch fluorescence ratio": 1}
{"sequence": "TTTCTCACTT", "switch fluorescence ratio": 1.04}
{"sequence": "AATCTGTATG", "switch fluorescence ratio": 1.06}
{"sequence": "GGTGAAATCT", "switch fluorescence ratio": 1.05}
{"sequence": "TGGAACGAGC", "switch fluorescence ratio": 0.987}
{"sequence": "GTTAAGTTCC", "switch fluorescence ratio": 1.09}
{"sequence": "ACGGCGGGTG", "switch fluorescence ratio": 1.1}
{"sequence": "GGGGCAGTTG", "switch fluorescence ratio": 1.01}
{"sequence": "AATGTATCT", "switch fluorescence ratio": 1}
{"sequence": "ATACTAGCAT", "switch fluorescence ratio": 1.06}
{"sequence": "GCGTTGTAGC", "switch fluorescence ratio": 1.07}
{"sequence": "GCGAGAGGGG", "switch fluorescence ratio": 1}
{"sequence": "AGTTCGTGTG", "switch fluorescence ratio": 0.985}
{"sequence": "ACGGAGCGAG", "switch fluorescence ratio": 2.68}
{"sequence": "AGATAAGGGC", "switch fluorescence ratio": 1.05}
{"sequence": "TCAACCTGTT", "switch fluorescence ratio": 0.999}
{"sequence": "CGATGTGGG", "switch fluorescence ratio": 1.01}
{"sequence": "CGGACCTGGT", "switch fluorescence ratio": 1.05}
{"sequence": "GGTTTGGTGC", "switch fluorescence ratio": 1.05}
{"sequence": "GCATGCTGCG", "switch fluorescence ratio": 1.01}
{"sequence": "GCCCTTAGCC", "switch fluorescence ratio": 1.03}
{"sequence": "GCCGAATTAG", "switch fluorescence ratio": 1.01}
{"sequence": "AAGGGCTCTC", "switch fluorescence ratio": 0.986}
{"sequence": "AATCGCAAGC", "switch fluorescence ratio": 4.73}
{"sequence": "TCTTTCGGCG", "switch fluorescence ratio": 0.983}
{"sequence": "CTAGTGTAGA", "switch fluorescence ratio": 1.04}
{"sequence": "ATCTTTATCG", "switch fluorescence ratio": 0.97}
{"sequence": "AATAATCACG", "switch fluorescence ratio": 1.02}
{"sequence": "ACATGGGCTG", "switch fluorescence ratio": 1.07}
{"sequence": "GCATAAGGCC", "switch fluorescence ratio": 1.03}
{"sequence": "TAAACTCGC", "switch fluorescence ratio": 1.02}
{"sequence": "CAGGCCTTTT", "switch fluorescence ratio": 1}
{"sequence": "TTCGGGAAGA", "switch fluorescence ratio": 1.1}
{"sequence": "GCTAGGCATA", "switch fluorescence ratio": 1.04}
{"sequence": "AAAGGCATG", "switch fluorescence ratio": 1.05}
{"sequence": "GTTTCGTGTG", "switch fluorescence ratio": 1}
{"sequence": "CATATAGATA", "switch fluorescence ratio": 0.982}
{"sequence": "CAAAACGTCC", "switch fluorescence ratio": 1.45}
{"sequence": "GCCGGCGAAA", "switch fluorescence ratio": 0.98}
{"sequence": "AGATGGGTCT", "switch fluorescence ratio": 0.98}
{"sequence": "GCTTGCTCGG", "switch fluorescence ratio": 1}
{"sequence": "AGTTAGCGCA", "switch fluorescence ratio": 0.952}
{"sequence": "GACCTAGGCC", "switch fluorescence ratio": 1.02}
{"sequence": "AATGAAGGGA", "switch fluorescence ratio": 0.983}
{"sequence": "AAATCATTTT", "switch fluorescence ratio": 1}
{"sequence": "GTGGTCGGAG", "switch fluorescence ratio": 0.946}
{"sequence": "TTCCCCAATT", "switch fluorescence ratio": 1.02}
{"sequence": "CAAGTGGTTT", "switch fluorescence ratio": 1.04}
{"sequence": "AGACCACTTT", "switch fluorescence ratio": 0.983}
{"sequence": "TGAGTCGTCG", "switch fluorescence ratio": 0.988}
{"sequence": "TTGCAGTCG", "switch fluorescence ratio": 1}
{"sequence": "CACTTCTGAT", "switch fluorescence ratio": 1.01}
{"sequence": "TCTTACTCAT", "switch fluorescence ratio": 1.03}
{"sequence": "TATAGTAC", "switch fluorescence ratio": 1.03}
{"sequence": "GGCAGCGCAT", "switch fluorescence ratio": 0.927}
